Results from the supplement of paper PMC11417369.
The other results are listed elsewhere or left out.

Tested on: PF3D7_0420300 AP2 domain 1 (GST-tagged)
Assay: gcPBM binding intensity (ln(normalized median fluorescence intensity)); higher = stronger DNA binding
Procedure, shortened: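 For binding intensity, the highest Masliner-normalised natural-log median intensity across replicate spots of either probe orientation was taken. Protein bound to the array was stained with Alexa488 anti-GST antibody and scanned at 488 nm. The protein, GST-tagged P. falciparum DNA-binding domains from E. coli at about 25 μg on average, had been applied for 1 h to an Agilent 4 × 180k array of primer-extended double-stranded 36-bp intergenic genomic probes and negative controls.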

Sequence	gcPBM binding intensity (ln)
TTATGAAATAGAATAACACACATATTTATATATGTG [CACACA_site2050]	9.39
TATATATTATAAAATAGTACACAGAATTTAAATATA [XGTACX_site100]	9.31
TATATATAGAAACACACACACATATATATATATTTT [CACACA_site2540]	10.1
TTGTTGATTGTTATTTATCATTAGATGTAAAATATG [CACACA_negctrl_site927]	9.26
AATATTTTTTTATAAACACACATATAAATAAATATA [CACACA_site7622]	9.21
TCTTTTAAACAGTACACACACACATATATATATATA [CACACA_site924]	9.94
ATATCTATAATAAACACACACATATACCTATAGGTA [CACACA_site7596]	9.73
TATTATATGTATTGCACACCTTCAACAACTACTTCT [CACACA_site655]	9.56
GGGCATATAATATAAAGTACAGGACTATAAAAATAT [XGTACX_site4481]	9.32
ATTGTGCACTTATATGCACACATTTTAGTTTTTTTT [CACACA_site2028]	9.44
TATCACATATTATGATGTACAAGGATTCTGACTAAT [XGTACX_site1196]	9.25
TTTATTTATCTGAACACATGCAGACAAATAACATAT [TGCATGCA_site929]	8.91
ATTATATATAAACACACACACATGCATGCACATATA [CACACA_site4237]	9.97
CATAAACTTTATAACACACACTTATAAATATAAATA [CACACA_site6646]	9.6
GTTATAAAATATGGCACACAAAATGTAAGTAAATGA [CACACA_site1458]	9.57
GATCTTTAAATTTATTGTACATAAATGTATATGTTA [XGTACX_site1107]	9.3
ATATATTTTGTTATGGTGCGTAAGAAATATATTCTT [GTGCAC_site9825]	9.22
CATATAAACAATAACACACACCTAGGTACATGGAAA [CACACA_site4615]	9.89
CTTTTTAATTTATCGACACACGCATGAATAGAAATT [CACACA_site9112]	9.19
AAAGCAAATAATAAGTGTACGGGTCAATATATGCGT [XGTACX_site1519]	9.76
GAACAATATATTTGCACACAAAAAATATATATTTAT [CACACA_site3317]	9.46
GTTTACATCATTCTGGTGCAAAAAAAAAAAAAAATA	8.83
GGATAAAAAATATGTACACACATATAGATATCTATA [CACACA_site2693]	9.52
ATACAAGTATTAATTACACACTCAAAAAGAAAAAAC [CACACA_site5287]	9.74
GAATACTCATTTCTTTGTACATATATATGTGTATTT [XGTACX_site6411]	9.57
